Variants at the floor of the assay are shown more often than the library holds them.
B1: TPR 5TU (parent)
chain: GGAUCUUCUCGAUCUAACAAAAAAGACAAAUCUGCCACAAAGCUUGAGAGCAUCUUCGGAUGCAGAGGCGGCAGCCUUCGGUGGCGCGAUAGCGCCAACGUUCUCAACUAUGACACGCAAAACGCGUGCUCCGUUGAAUGGAGUUUAUCAUG

Variants of: B1
Test: polymerase ribozyme fitness, log enrichment relative to wild type (log ratio); higher = more active; in vitro selection for triplet polymerase activity
In short: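 To select mutant libraries of each subunit of a heterodimeric triplet polymerase ribozyme, built by PCR and transcribed, each was annealed with a biotinylated primer, partner subunit and triplets, then incubated frozen at −7 °C. Extended constructs were gel-excised, captured on streptavidin beads and amplified by RT-PCR, in one round carried out in triplicate. Illumina sequencing of input and output libraries kept genotypes with ≥10 input reads and ≥1 read per output. Fitness is the base-2 logarithm of genotype enrichment relative to wild-type enrichment, from inverse-variance-weighted replicate averages.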

Variant | polymerase ribozyme fitness (log ratio)
C27U C36A U53G G67U C85G U104G A150U | ≤ -4.2
C27A C51U A52G A73U U90C C95U | ≤ -4.2
C27G C32U C36U G88A C99U G141U G152C | -4.05
C27U C57U A73G C87A G94U G141A U148A | ≤ -4.2
C27A C76G | ≤ -4.2
C27U C36U | -2.88
A26U U44A G58A C87U A107G C123G G141C | -3.93
C27G A39C G59C C85G C105G | ≤ -4.2
C27G C54U C76G U144G | ≤ -4.2
A26U G50A G92C | ≤ -4.2
C27G C79A G80A C93G C103G U127C | ≤ -4.2
C27G C57U G58C G83C A97G | ≤ -4.2
A26U U53A C75U C85U A137G | ≤ -4.2
C27U A47C C54A U61G U77G G140C | ≤ -4.2
C27G A28C C85G | ≤ -4.2
C27A A41C G81C G84U C123U | ≤ -4.2
C27G U55A G59A A97G G100C G136A | ≤ -4.2
C27A C75A U101G | ≤ -4.2
C27G G50A C99G U102G G141C | ≤ -4.2
C27G A28C A47U C116G A120G | ≤ -4.2
C27A A37U C63G G68A | ≤ -4.2

Variant | polymerase ribozyme fitness (log ratio)
C27A C72U G92C A98G U104G U109C A115C | ≤ -4.2
C27A A52G G128U C129U C131G A147U | ≤ -4.2
C27A U45C G59A G74U A97U C149U | ≤ -4.2
C27G A66G G92A A107C | ≤ -4.2
C27U C32U A47U C85G U135G G152A | ≤ -4.2
C27A C87A A110U C116A G140U | ≤ -4.2
A26U U104C G124C | -3.3
C27A A37U A39G A40G U78G C79U C87G C103U | ≤ -4.2
C27G A29U A41C A49C C57U U109C A113U | ≤ -4.2
A26U U45A G83U G92C A122U | ≤ -4.2
C27U A73C C95G | ≤ -4.2
C27U C75G U78A C85U U148G | ≤ -4.2
C27A U61A G86A | ≤ -4.2
C27G C72U G83U A91U C93U | ≤ -4.2
C27G C95U C116A A120U | ≤ -4.2
C27U A29U G50A C76U G92A C114U | ≤ -4.2
C27G A37U A40C A64G G81A C95G A138C | -3.88
C27U A29C G58C C85A U145A | ≤ -4.2
C27A A30U U44A C57A A97G A98U A119C A120G G128A | ≤ -4.2
C27A G62A C79G A91U A122U C131U | ≤ -4.2
A26U G62U A122G C132U | ≤ -4.2

Variant | polymerase ribozyme fitness (log ratio)
C27G C36U G50U A73U U82A C95U | ≤ -4.2
A26U G133U | ≤ -4.2
A26U C38A A106U A107C A110G A120G | ≤ -4.2
C27G A52C U82A | ≤ -4.2
A26U G62U U135A | -2.77
C27G G48C A66G U139A G140U | ≤ -4.2
C27G C93U G141C | -3.68
C27U C54U G83U | -2.12
C27G U61A C87U | ≤ -4.2
A26U C54A G67U | ≤ -4.2
C27G A150C | ≤ -4.2
C27G C38U A49C G65C C87G C114A A119G G141A | ≤ -4.2
C27G A40C G48A C63A G70U G81A G92A | ≤ -4.2
C27G U55G C79G C96A C118U G141C | ≤ -4.2
C27G G34C C43U C103A G143U | ≤ -4.2
C27A U44A G48A | ≤ -4.2
C27G C36G G74A U77C C96A A119G U127G | ≤ -4.2
C27A U61A G88C G92A G117U U139G | ≤ -4.2
C27G A73G C85U U101G | ≤ -4.2
C27G A66C C96A C99G A120C | ≤ -4.2
C27U A29U A52G C76A G92A C105U U151A | ≤ -4.2

Variant | polymerase ribozyme fitness (log ratio)
C27G A29C A49U A66G C75A C93A | ≤ -4.2
C27G U61A C95U | ≤ -4.2
A26U U44G A52G C57A C75U | ≤ -4.2
C27G G92C C99U A107C U134A | ≤ -4.2
C27A U44G U78G A107U | ≤ -4.2
C27U A28U C57A A89U C95U C123U | ≤ -4.2
C27G G92C A142U | ≤ -4.2
A26U G50C C85G C95A C96U G140U | ≤ -4.2
A26U C93G | ≤ -4.2
C27U A47C | -1.01
C27G A49C C69U G84C U109G | ≤ -4.2
C27G G81A G84U G136U | ≤ -4.2
A26U G48A G70U C125U | ≤ -4.2
A26U G59A C87G | ≤ -4.2
C27G A30U A49U C87A U104C A115U | ≤ -4.2
C27A U82C C93A A138U | ≤ -4.2
C27G A40U G42A A91G G126U U127A | ≤ -4.2
C27A G59C C85A A89U U104A | ≤ -4.2
C27A G48C A52C U55A G68U C95A A138C | ≤ -4.2
C27G C35G A49C G70C C79A C95G | ≤ -4.2

From the RNAGym collection of RNA variant scans (doi:10.1073/pnas.2313332121)
